This is one part of the list. Sequences were assembled here from the parent chain. Inactive controls read about 0.05.
B1: TEV protease; numbered along this chain (parent)
chain: MGESLFKGPRDYNPISSSICHLTNESDGHTTSLYGIGFGPFIITNKHLFRRNNGTLVVQSLHGVFKVKDTTTLQQHLVDGRDMIIIRMPKDFPPFPQKLKFREPQREERICLVTTNFQTKSMSSMVSDTSCTFPSGDGIFWKHWIQTKDGQCGSPLVSTRDGFIVGIHSASNFTNTNNYFTSVPKNFMELLTNQEAQQWVSGWRLNADSVLWGGHKVFMVKPEEPFQPVKEATQL

Variants of: B1
Experiment: raw area under fraction-flipped curve 0-4 h after induction (AUC4h, not background-subtracted), DNA-recorder readout of cleavage of the substrate (dimensionless); higher = more cleavage of the substrate by the protease variant
Conditions: temperature: 34 °C; time window: 0-4 h after rhamnose induction
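Note: Bxb1 expression induced with 0.2% (w/v) L-rhamnose at OD600 near 0.5, cultures sampled hourly, flipped fraction per protease–substrate barcode pair counted by paired-end Illumina sequencing.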

| Variant | area with substrate ECLYFQS | area with substrate EDLYFQS | area with substrate EGLYFQS | area with substrate EKLYFQS | area with substrate ELLYFQS | area with substrate EMLYFQS | area with substrate EPLYFQS | area with substrate ESLYFQS | area with substrate EVLYFQS | area with substrate EELYFQS | area with substrate EFLYFQS | area with substrate EQLYFQS | area with substrate EWLYFQS | area with substrate EYLYFQS | area with substrate EILYFQS | area with substrate ERLYFQS | area with substrate ETLYFQS | area with substrate EHLYFQS |
| --- | --- | --- | --- | --- | --- | --- | --- | --- | --- | --- | --- | --- | --- | --- | --- | --- | --- | --- |
| K68D | 0.117 | 0.145 | 0.134 | 0.123 | 0.151 | 0.0649 | 0.146 | 0.12 | 0.118 |  |  |  |  |  |  |  |  |  |
| K68H | 0.103 | 0.0636 |  |  | 0.111 | 0.115 | 0.116 | 0.104 |  | 0.119 | 0.0981 | 0.112 | 0.113 | 0.11 |  |  |  |  |
| D69Y | 0.113 | 0.0927 |  | 0.134 |  |  |  | 0.0666 |  |  | 0.0648 | 0.101 |  |  | 0.102 | 0.09 |  |  |
| T70N | 0.0588 |  | 0.062 |  |  |  |  | 0.0678 | 0.0633 | 0.0773 |  | 0.0868 |  | 0.0647 | 0.0624 | 0.079 | 0.062 |  |
| T71N | 0.0917 | 0.0974 | 0.0771 | 0.0854 |  | 0.0659 |  |  | 0.0718 | 0.111 |  | 0.0924 | 0.0842 |  | 0.0396 | 0.0915 |  |  |
| T71Q | 0.0969 |  | 0.0901 |  | 0.0902 | 0.111 |  | 0.0803 |  | 0.119 |  | 0.148 |  | 0.111 | 0.0994 |  |  | 0.103 |
| T71R | 0.0751 | 0.145 | 0.0866 | 0.105 |  | 0.112 |  | 0.112 |  | 0.147 |  |  | 0.1 | 0.136 |  |  | 0.105 | 0.133 |
| L73K | 0.0437 | 0.0495 |  |  | 0.0626 | 0.0415 | 0.0598 |  | 0.0552 | 0.0535 |  | 0.0414 |  | 0.0644 | 0.0326 | 0.06 |  |  |
| L73N | 0.0502 | 0.0696 | 0.0474 | 0.0494 | 0.0504 |  |  |  |  |  |  | 0.0608 | 0.06 | 0.0566 |  |  | 0.0474 |  |
| Q74K | 0.114 | 0.134 | 0.0749 | 0.0956 |  |  | 0.11 | 0.0838 | 0.101 | 0.134 |  | 0.122 |  |  |  |  |  | 0.0866 |
| Q74Y | 0.0982 | 0.094 |  | 0.116 |  | 0.0944 | 0.159 |  | 0.084 |  |  | 0.125 |  |  |  |  | 0.102 |  |
| Q75V | 0.0789 |  |  | 0.0611 |  |  |  | 0.0836 | 0.102 | 0.103 |  | 0.127 |  |  | 0.0662 | 0.0723 | 0.106 |  |
| H76K | 0.0972 |  |  | 0.0878 | 0.0707 | 0.0914 |  | 0.113 | 0.0548 | 0.0925 |  | 0.114 |  |  |  | 0.0995 |  |  |
| H76V | 0.149 | 0.145 |  |  |  |  |  | 0.0983 |  | 0.119 |  | 0.103 |  |  | 0.0928 |  |  | 0.12 |
| L77Q | 0.0261 | 0.0651 | 0.0576 | 0.0711 |  | 0.0753 | 0.0701 | 0.0654 |  | 0.0661 |  | 0.0742 | 0.0652 |  | 0.0694 | 0.0674 |  |  |
| G80S | 0.123 |  | 0.0778 |  |  | 0.115 |  |  |  | 0.123 | 0.0888 | 0.0986 | 0.0999 |  |  | 0.105 |  |  |
| R81W | 0.0755 | 0.0911 |  | 0.0706 |  | 0.0643 | 0.0696 | 0.0789 | 0.0887 |  | 0.0728 |  |  |  |  | 0.0795 |  |  |

| Variant | area with substrate ECLYFQS | area with substrate EDLYFQS | area with substrate EGLYFQS | area with substrate EKLYFQS | area with substrate ELLYFQS | area with substrate EMLYFQS | area with substrate EPLYFQS | area with substrate ESLYFQS | area with substrate EVLYFQS | area with substrate EELYFQS | area with substrate EFLYFQS | area with substrate EQLYFQS | area with substrate EWLYFQS | area with substrate EYLYFQS | area with substrate EILYFQS | area with substrate ERLYFQS | area with substrate ETLYFQS | area with substrate EHLYFQS |
| --- | --- | --- | --- | --- | --- | --- | --- | --- | --- | --- | --- | --- | --- | --- | --- | --- | --- | --- |
| R81Y | 0.0813 | 0.0939 | 0.0751 | 0.085 | 0.0827 |  |  | 0.0797 | 0.0818 | 0.0995 |  | 0.0753 | 0.0708 | 0.0908 | 0.0746 |  |  | 0.0796 |
| D82P | 0.0542 | 0.064 | 0.0554 |  |  | 0.0538 |  |  | 0.0509 | 0.0609 |  |  |  |  | 0.0467 |  |  |  |
| I86S | 0.062 |  |  | 0.0589 | 0.0621 | 0.0706 | 0.0604 | 0.0621 | 0.0555 | 0.0563 |  | 0.0586 | 0.0516 | 0.0684 | 0.0569 | 0.0578 |  | 0.0727 |
| I86T | 0.0714 |  |  | 0.0611 |  | 0.0717 | 0.0746 | 0.0749 | 0.0622 | 0.078 |  |  | 0.0819 |  | 0.0662 | 0.0684 |  |  |
| R87C | 0.0962 | 0.129 | 0.0931 | 0.0565 | 0.0918 |  | 0.109 |  |  |  | 0.108 |  | 0.0808 | 0.097 | 0.0899 | 0.0934 |  |  |
| R87S | 0.0734 | 0.0923 | 0.0867 | 0.0898 | 0.077 | 0.0868 | 0.0714 | 0.0938 |  | 0.086 | 0.0728 | 0.0859 | 0.0523 | 0.0744 | 0.0873 | 0.0814 |  | 0.0907 |
| P89Q | 0.0799 | 0.0593 |  |  |  | 0.0769 | 0.127 | 0.0827 | 0.0761 | 0.0864 | 0.0974 | 0.0646 | 0.0936 | 0.0899 | 0.0678 | 0.0705 | 0.101 | 0.0878 |
| K90N | 0.104 |  | 0.107 | 0.0902 |  | 0.157 |  | 0.0866 | 0.105 | 0.0729 |  | 0.116 | 0.101 |  | 0.0776 |  |  |  |
| K90P | 0.111 | 0.0985 |  | 0.112 | 0.0689 | 0.135 | 0.103 | 0.111 | 0.115 | 0.117 |  |  | 0.11 |  | 0.088 |  |  | 0.0925 |
| K90S | 0.0961 | 0.125 | 0.104 | 0.0615 |  |  |  | 0.107 | 0.0938 | 0.0664 | 0.0905 | 0.117 |  |  | 0.0647 | 0.0954 |  | 0.155 |
| D91I | 0.102 | 0.129 |  | 0.109 |  | 0.107 |  | 0.118 |  |  |  | 0.118 |  |  | 0.0751 | 0.12 |  |  |
| P93T | 0.101 | 0.143 |  | 0.109 |  |  | 0.118 |  |  |  |  |  |  |  | 0.15 |  |  | 0.0882 |
| P93V | 0.123 |  | 0.08 | 0.0921 |  | 0.124 | 0.114 | 0.112 | 0.0506 | 0.107 |  | 0.0832 | 0.0901 |  |  | 0.101 |  |  |
| P94F | 0.103 | 0.121 |  |  | 0.0854 |  |  | 0.0976 | 0.096 | 0.0758 |  | 0.128 |  |  | 0.0917 |  |  | 0.0932 |
| P94S | 0.0621 |  | 0.0941 | 0.106 | 0.0912 | 0.107 |  | 0.14 | 0.116 | 0.132 | 0.1 | 0.0536 | 0.112 |  | 0.0694 |  |  |  |
| F95D | 0.0303 | 0.0559 |  |  |  | 0.057 |  |  |  |  | 0.0539 |  |  |  |  |  | 0.0447 |  |
| K98D | 0.127 | 0.109 | 0.114 |  |  | 0.11 |  |  | 0.113 |  |  | 0.121 | 0.144 |  | 0.1 | 0.145 |  |  |
